Data as given in article PMC4336329 (PLoS ONE, 2015).
The campaign covered roughly 310,000 compounds. About 14,000 (4.5%) showed an effect of 50% or more. The effect is printed as a negative number. This is one part of the list.

Target: human ether-à-go-go-related gene (hERG) potassium channel (human, UniProt Q12809)
Assay: primary screen, population patch clamp on CHO cells stably expressing hERG
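Also: peak tail current of the secondary pulse compared with the same well before compound.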

human ether-à-go-go-related gene (hERG) potassium channel, sequence (Q12809 whole entry, looked up): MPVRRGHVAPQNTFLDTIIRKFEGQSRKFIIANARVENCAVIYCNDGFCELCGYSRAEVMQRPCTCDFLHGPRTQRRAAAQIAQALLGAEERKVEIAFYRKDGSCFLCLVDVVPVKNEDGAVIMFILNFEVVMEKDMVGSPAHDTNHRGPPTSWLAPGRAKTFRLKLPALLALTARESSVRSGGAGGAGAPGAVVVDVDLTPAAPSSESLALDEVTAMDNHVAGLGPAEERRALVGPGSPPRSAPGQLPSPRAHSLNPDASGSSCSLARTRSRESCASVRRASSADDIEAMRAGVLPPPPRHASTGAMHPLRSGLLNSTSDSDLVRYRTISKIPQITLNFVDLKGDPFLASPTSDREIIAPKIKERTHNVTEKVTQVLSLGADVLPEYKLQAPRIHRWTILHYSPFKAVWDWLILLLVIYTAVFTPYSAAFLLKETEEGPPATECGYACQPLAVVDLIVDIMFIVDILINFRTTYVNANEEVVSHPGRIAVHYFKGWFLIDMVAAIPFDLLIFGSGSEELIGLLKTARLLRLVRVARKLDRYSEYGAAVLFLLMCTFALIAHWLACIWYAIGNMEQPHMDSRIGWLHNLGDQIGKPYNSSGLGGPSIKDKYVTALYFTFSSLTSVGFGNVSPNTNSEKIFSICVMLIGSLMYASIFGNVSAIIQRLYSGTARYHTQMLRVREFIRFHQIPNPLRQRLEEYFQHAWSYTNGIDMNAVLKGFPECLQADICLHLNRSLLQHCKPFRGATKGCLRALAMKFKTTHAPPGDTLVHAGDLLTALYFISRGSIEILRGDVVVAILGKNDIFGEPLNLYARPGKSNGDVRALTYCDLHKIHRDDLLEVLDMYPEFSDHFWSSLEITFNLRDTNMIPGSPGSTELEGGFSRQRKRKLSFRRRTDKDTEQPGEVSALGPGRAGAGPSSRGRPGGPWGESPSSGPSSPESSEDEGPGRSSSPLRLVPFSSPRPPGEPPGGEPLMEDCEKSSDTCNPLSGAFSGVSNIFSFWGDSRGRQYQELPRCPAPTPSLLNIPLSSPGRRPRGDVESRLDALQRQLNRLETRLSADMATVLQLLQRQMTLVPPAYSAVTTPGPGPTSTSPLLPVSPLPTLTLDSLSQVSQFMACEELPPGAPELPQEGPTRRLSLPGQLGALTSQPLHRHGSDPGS

SMILES	hERG current change (%, negative = inhibition) at 10uM
COc1cccc(C2C(C(=O)c3cc4ccccc4o3)=C(O)C(=O)N2c2cc(C)on2)c1 (stereo not shown)	7.91%
O/N=C1\CC/C(=N\O)c2nn(-c3ccccc3Cl)nc21	4.25%
CC(C)(C)OC(=O)NC(CNCc1ccccc1)Cc1ccccc1 (stereo not shown)	-15%
O=C(NC1CCN(C(=O)Nc2ccc(F)cc2)CC1)c1cccc(F)c1	-16.1%
O=C(CN1c2ccccc2Sc2ccccc21)NNC(=S)Nc1ccc(Cl)cc1	15%
Cc1cc(C)c(C)c(C(=O)CSc2nnc(-c3ccc4[nH]c(C)c(C)c4c3)o2)c1C	-1.56%
CCc1ccc(OCC(=O)Nc2ccc(-c3nc4ccccc4o3)c(O)c2)cc1	14.7%
Cc1ccc(C(=O)NC2CC2)cc1S(=O)(=O)N1CCOCC1	-12.6%
CCOc1c(C)cnc2c1c(=O)n(CC(=O)NCC1CCCO1)c(=O)n2C (stereo not shown)	10.1%
C=C(C)C1CC=C(C)/C(=N\NC(=S)Nc2ccc(C)cc2)C1 (stereo not shown)	7.06%
CCOC(=O)c1ccc(NC(=O)c2cc(=O)[nH]c3ccccc23)cc1	1.88%
CCOC(=O)N1CCN(S(=O)(=O)N2CCCC(C(=O)NCc3ccc(OC)cc3OC)C2)CC1 (stereo not shown)	-23.1%
Cc1ccc(NC(=O)CSc2nnc(CNC(=O)c3ccco3)n2C)cc1	3.01%
O=C(CC1Sc2ccccc2NC1=O)Nc1cccnc1 (stereo not shown)	-4.19%
COc1cc(C(=O)N2CCN(c3ccccc3F)CC2)ccc1OCC(=O)N1CCOCC1	-60.9%
CC(C)Cc1cc(C(=O)NCc2ccco2)no1	-29.8%
CCN1CCN(S(=O)(=O)c2ccc(Cl)c(C(=O)Nc3ccccc3N3CCCCC3)c2)CC1	12.8%
Cc1ccc(NC(=O)CSc2nnc(-c3ccncc3)o2)cc1C	12.5%
COc1ccc2nc(SCC(N)=O)[nH]c2c1	-2.83%
CC(C)C[C@@]12C(=O)N(c3cccc(Cl)c3)C(=O)N1[C@H](c1ccc(Cl)cc1)[C@@H]1C(=O)N(C3CCCCC3)C(=O)[C@@H]12	11.2%
CCOCCCN(Cc1cc2cc(C)cc(C)c2[nH]c1=O)C(=O)N(CC)CC	-8.98%
Cc1ccc(C(C(=O)NC2CCCCC2)N(C(=O)c2csnn2)C2CCCC2)o1 (stereo not shown)	-7.71%
CCn1c(CCNC(=O)c2ccc(C)cc2)n[nH]c1=S	-9.11%
Cc1cccc(/C=C2\Sc3ccc(C(=O)NCC4CCCO4)cc3N(C)C2=O)c1 (stereo not shown)	5.21%
Cc1ccccc1OCCCC(=O)Nc1ccc(S(=O)(=O)Nc2onc(C)c2C)cc1	20.2%
Cc1ccc2c(c1)c1nnc(SCC(=O)Nc3ccc(N(C)C)cc3)nc1n2CC(=O)O	6%
CC(C)NC(=O)CSc1nnc(COc2ccccc2Cl)o1	9.76%
CN1CCN(c2nc3c(c(=O)[nH]c(=O)n3C)n2CCSc2nnnn2-c2ccccc2)CC1	-17%

SMILES	hERG current change (%, negative = inhibition) at 10uM
O=C(CCS(=O)(=O)Cc1ccccc1F)NCc1ccccc1Cl	3.62%
O=[N+]([O-])c1ccc(-c2ccn[nH]2)o1	14.8%
O=C(Cn1cnc2c(nnn2-c2cccc(Cl)c2)c1=O)N1CCOCC1	-25.3%
CCCOC(=O)/C(=C\C=C\c1ccco1)NC(=O)c1ccccc1	17.4%
COc1cccc(-c2nc(Oc3cccc(C)c3C)c3ccccc3n2)c1O	17.6%
Cc1nn(-c2ccccc2)c(C)c1/C=N/NC(=O)CSc1nnc(SCc2ccc(Cl)cc2)s1	4.89%
NS(=O)(=O)c1cc(C(=O)OCC(=O)N2CCc3ccccc3C2)ccc1Cl	-14.8%
Cc1cccc2c1NC(=O)/C2=C\C(=O)c1cccs1	1.97%
CN1CCN(CCCNC(=S)Nc2ccc(F)c(Cl)c2)CC1	-21.4%
Cc1ccc(S(=O)(=O)N2CCN(CCOc3c(Cl)cccc3Cl)CC2)cc1C	5.39%
CC(=O)c1ccc(NC(=S)NNC(=O)NC2CCCCC2)cc1	8.27%
CNC(=O)Nc1cccc(-c2ccnc(C)n2)c1	8.17%
COc1cccc(CN2CCNC(=O)C2CC(=O)NCCCN2CCCC2=O)c1 (stereo not shown)	15.7%
CCC(C)(C)NC(=O)C(C(C)C)N(CC1CCCO1)C(=O)CNS(=O)(=O)c1ccccc1 (stereo not shown)	-2.21%
COc1cc(/C=C2/NC(=O)N(Cc3ccccc3F)C2=O)ccc1Oc1ccc([N+](=O)[O-])cn1	8.97%
COc1ccccc1/C=C\C=N\n1c(-c2ccc(Cl)cc2Cl)n[nH]c1=S	25.5%
O=[N+]([O-])c1ccc(Cc2cncc(O)c2)cc1	-17.3%
O=C(NCc1cn2ccsc2n1)c1c(F)cccc1Cl	7.32%
CC(C(=O)Nc1cccc([N+](=O)[O-])c1)[n+]1ccccc1.[Br-] (stereo not shown)	1.78%
CCC(O)C1CCN(C(=O)c2ccc(OC3CCN(Cc4ccccn4)CC3)cc2)CC1 (stereo not shown)	21%
Cc1ccc(C2N(c3ccc(F)cc3)C(=O)C3CCCN32)cc1 (stereo not shown)	5.75%
COC(=O)c1ccccc1Oc1cc(C(F)(F)F)nc(-c2ccccn2)n1	17%
CC(=O)c1cnn(-c2nc3c(C)cccc3s2)c1C	-5.76%
COC(=O)c1ccc(CN(c2ccc(OC)cc2)S(=O)(=O)c2ccccc2)cc1	17.8%
O=C(Cc1ccsc1-c1ccccc1)NO	5%
COc1cc(-c2[nH]ncc2CN2CCSCC2)cc(OC)c1OC	-9.26%
CCOc1cc(/C=N\NC(=O)Cn2nnc3ccccc32)ccc1O	-1.1%
